From PubChem BioAssay AID1508624 (National Center for Advancing Translational Sciences (NCATS), 2021) come the findings set out here.

Each structure is given as a SMILES string. Out of some 48,000 compounds screened, about 120 (0.25%) were called active. Roughly 4% stayed inconclusive and do not appear here. Calls come from the whole dose curve; as a rule, active = well fitted activation curve with a large enough effect; inconclusive = small, poorly fitted or top-dose-only effect, or another doubt; inactive = no such curve, though single readings can be large or run the other way. Some of the results follow.

The test is described as follows: Primary qHTS for Identification of Small Molecule Activators of Huntingtin-Antisense Promoter Activity. Note: nearly all actives have a fitted effect of over 55% in size. The settings on record: HEK293 HTT-AS promoter firefly luciferase reporter, 24 h; series mostly up to 57.5 µM; activity change, positive = activation: at the top concentration. A digest of the protocol:
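HEK293 Fluc reporter, 2,500 cells/well, 24 h pre-culture; cpds up to 57.5 uM final, 24 h 37 degrees C; Dual-Glo, 10 min RT; normalized vehicle = 0%, zero RLU = -100%.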
(In general: qHTS replaces the single test concentration by a dilution series.)
In the case of `Cc1c(Cl)cccc1-n1ncc(C(=O)N2CCC(C)CC2)c1C1CCN(C(=O)OC(C)(C)C)CC1`, the “activity change, positive = activation” value is inactive: 12.2%.
The same measure for `CN(C(=O)C1CCN(c2ncnc3c2nc2n3CCCCC2)CC1)c1ccccc1F`: inactive: -8.95%.
Regarding `CCN(CC)c1ccc(NC(=O)CN2CCN(S(=O)(=O)c3cc(Cl)ccc3OC)CC2)cc1`, the “activity change, positive = activation” value was inactive: -7.9%.
The same measure for `COc1ccc(NC(=O)CSc2nc(-c3ccccc3)[nH]c2-c2ccccc2)cc1OC`: inactive: -16.6%; for `CC(C)C(NS(=O)(=O)c1ccc2c(c1)oc(=O)n2C)C(=O)NCc1ccccc1` (stereo unspecified): inactive: 15.7%.
On to `CC(=O)c1ccc(N2CCN(C(=O)c3cc4c(s3)-c3ccccc3OC4)CC2)cc1`, for which the “activity change, positive = activation” value was inactive: -10.9%.
The same measure for `Cc1oc(-c2ccc(C(=O)NCc3ccccc3F)cc2)nc1COc1ccccc1`: inactive: -30.7%.
The same measure for `COc1ccccc1CCNC(=O)C(=O)NCC(c1ccco1)S(=O)(=O)c1ccccc1` (stereo unspecified): inactive: -28%; for `Cc1cccc(NC(=O)CSc2nc3ccccc3c3nc(CCc4c(C)n[nH]c4C)nn23)c1`: inactive: -50.3%; for `COc1ccc(Nc2nc3ccccc3nc2NS(=O)(=O)c2ccc(Cl)cc2)cc1OC`: inactive: -41.8%.
The value for `NS(=O)(=O)c1cc(C(=O)NN2C[C@H]3[C@H]4CCC(C4)[C@H]3C2)ccc1Cl` was inactive: 2.5%; that for `CC(C)c1cnc2c(c1SCC(=O)O)c(=O)n(C)c(=O)n2C` was inactive: -6.57%.
In the case of `CCC(C(=O)NCc1cccc(Br)c1)n1nc(C)c2c(C)n(-c3ccccc3)nc2c1=O` (stereo unspecified), the “activity change, positive = activation” value is inactive: -18.7%.
Turning to `O=S(=O)(Nc1cccc(F)c1)c1ccc2[nH]c3c(c2c1)CCCCC3`, the activity change, positive = activation was inactive: 12.3% [at 11.5 µM, percent change from vehicle, -100% = no light].
The same measure for `CC(=O)Nc1ccc(NC(=O)c2cnn(-c3ccccc3)c2C2CCN(C(=O)OC(C)(C)C)CC2)cc1`: inactive: -1.05%; for `Cc1ccc(S(=O)(=O)NCCc2csc3nc(-c4ccccc4F)nn23)cc1C`: inactive: -24.2%.
The value for `CN(C(=O)c1c2c(nc3ccccc13)C(=O)N(C1CCCCC1)C2)c1ccc(F)cc1` was inactive: -6.82%; that for `COc1cccc(-c2nc(SCc3ccc(C)cc3)n3[nH]c(=O)cc3n2)c1` was inactive: 8.84%.
For `CC(C)(C)OC(=O)N1CCC(c2c(C(=O)N3CCC(c4ccccc4)C3)cnn2-c2ccc(Cl)cc2)CC1` (stereo unspecified), the “activity change, positive = activation” value is inactive: -28.8%.
The value for `O=[N+]([O-])c1ccc(S(=O)(=O)N2CCn3cccc3C2c2ccccc2F)cc1` (stereo unspecified) was inactive: -32.7%.
The same measure for `CC(NC(=O)C1CCN(S(=O)(=O)c2ccc3c(c2)oc(=O)n3C)CC1)c1ccccc1` (stereo unspecified): inactive: -22.9%.
In the case of `CCOC(=O)c1c(C)oc2ncnc(N3CCN(c4ccccc4)CC3)c12`, the “activity change, positive = activation” value was inactive: -34.8%.
The value for `Cc1ccc(C)c(N2CCN(c3nc4ccc(Cl)cc4n4cnnc34)CC2)c1` was inactive: -13%; that for `Cc1ccccc1OCc1nnc(SCc2cc(=O)c3ccc(C)c(C)c3[nH]2)n1C` was inactive: -8.71%; that for `COc1ccccc1-c1nc(S(=O)(=O)c2ccccc2)c(N2CCC(C)CC2)o1` was inactive: 30.8% [at 11.5 µM, percent change from vehicle, -100% = no light].
The value for `Cc1ccc(-c2cc3c(n2-c2ccc(F)cc2)CC(C)(C)CC3=O)cc1` was inactive: -10.2%; that for `CC(Nc1ccc(-c2nc(-c3ccco3)no2)cc1[N+](=O)[O-])c1ccccc1` (stereo unspecified) was inactive: 18%.
The same measure for `CCS(=O)(=O)c1oc(-c2ccc(F)cc2)nc1S(=O)(=O)c1ccc(Br)cc1`: inactive: -94.6%; for `CC(C)(C)C(=O)Nc1cccc(C(=O)OCc2cc(=O)n3nc(C4CC4)sc3n2)c1`: inactive: 17.1%; for `Cc1ccccc1NC(=O)CCNC(=O)Cn1ccc2ccccc2c1=O`: inactive: 1.75%.
As for `COc1cc(NC(=O)c2cc3ccc4cccnc4c3[nH]2)cc(OC)c1OC`, the “activity change, positive = activation” value is inactive: 1.74%.
Turning to `COc1ccccc1N1CCN(S(=O)(=O)CCNC(=O)C2CC(=O)N(c3ccccc3)C2)CC1` (stereo unspecified), the “activity change, positive = activation” value was inactive: -5.8%.
The value for `CCOC(=O)c1ccc(NC(=O)CSc2nc(-c3cccs3)cc(C(F)(F)F)c2C#N)cc1` was inactive: -16.3%; that for `CCS(=O)(=O)c1nc(S(=O)(=O)c2ccc(C)cc2)c(NCC(C)C)s1` was inactive: -27.5%.
The value for `CCOC(=O)N1CCc2c(sc(NCc3sccc3C)c2C(=O)Nc2cc(Cl)ccc2OC)C1` was inactive: 4.26%; that for `CC(=O)C1=C(c2ccc(Cl)c(Cl)c2)N(C(C)=O)n2cnnc2S1` was inactive: -82.7%.
As for `O=C1CN(C(=O)COc2ccc(Cl)cc2)C(c2ccc(F)cc2)c2cc(Br)ccc2N1` (stereo unspecified), the “activity change, positive = activation” value is inactive: -43.3%.
For `Cc1ccc(NC(=O)N2CCN(Cc3nc4ccc(C)cc4o3)CC2)c(Cl)c1`, the “activity change, positive = activation” value was inactive: -24.4%.
The same measure for `CCOc1ccccc1Nc1nnc(-c2cc3cc(Cl)ccc3oc2=O)s1`: inactive: -16.9%; for `O=C(CNC(=O)c1ccccc1F)OCc1cc(=O)n2nc(C3CC3)sc2n1`: inactive: -2.73%; for `CCC(=O)N1CCc2cc(CNC(=O)c3ccc(C#N)cc3)ccc21`: inactive: -24.8%.
The same measure for `CC(NC(=O)c1cc2ccccc2o1)c1ccccc1` (stereo unspecified): inactive: -22.9%; for `CCOc1ccc(NC(=O)CSC2=Nc3ccccc3C3=NC(Cc4ccccc4)C(=O)N23)cc1` (stereo unspecified): inactive: -0.265%; for `CCOC(=O)c1c(C)[nH]c(C)c1S(=O)(=O)N1CCCC(C(=O)Nc2cccc(C)n2)C1` (stereo unspecified): inactive: -14.2%.
The value for `COc1ccc(-c2nc3sc(CCNC(=O)C(=O)Nc4ccc(C)c(F)c4)c(C)n3n2)cc1` was inactive: -10.9%; that for `CCCn1nc(NC(=O)c2cccc(Cl)c2)c2cc3cccc(C)c3nc21` was inactive: 0%.
